PubChem BioAssay AID493208 (National Center for Advancing Translational Sciences (NCATS), 2011)
In all, about 44,000 compounds went through this assay and about 340 (0.77%) were called active. Not shown: some 5% with an inconclusive outcome. Calls come from the whole dose curve; as a rule, active = well fitted inhibition curve with a large enough effect; inconclusive = small, poorly fitted or top-dose-only effect; inactive = flat fitted curve, though single readings scatter. The list shows a part of the results.

Test: Acumen qHTS Assay for Inhibitors of the mTORC1 Signaling Pathway in MEF (Tsc2-/-, p53-/-) Cells: Sytravon;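 note: plate controls were DMSO for no effect and rapamycin for full effect; nearly all actives have a fitted effect of over 50% in size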
Settings: phospho-rpS6 immunofluorescence/PI, 24 h; series mostly up to 38.3 µM; activity change, negative = inhibition: at the top concentration
How it was run: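 Tsc2-/-, p53-/- mouse embryonic fibroblasts (empty-vector line) exposed to compound 24 hrs at 37 C, fixed, immunostained for phospho-rpS6 and counterstained with propidium iodide. Acumen laser scanning gives % positive cells from Alexa 488/PI ratio, thresholded using 7.5 nM rapamycin; PI count gives viability.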

Activity change, negative = inhibition, inactive:
Cc1ccc2oc(-c3ccc(C)c(NC(=O)/C=C/c4ccco4)c3)nc2c1 -2.37%
N#Cc1ccccc1CSc1nnc(-c2ccc(Br)cc2)o1 -1.68%
Cc1ccc(CNC(=O)Cn2ccn(-c3cccc(Cl)c3)c(=O)c2=O)cc1 2.86%
COc1cccc(-c2cc(C(F)(F)F)n3ncc(C(=O)OC(C)C)c3n2)c1 -3.29%
Cc1ccc(-c2noc(CNC(=O)c3ccc(C)c(Cl)c3)n2)cc1 -18.2%
CCCOc1ccc(C2C(=O)N(C3CCC(C)CC3)CC(=O)N2CCc2ccccc2)cc1OC (configuration not stated) -8.07%
CCN(CC)C(=O)C1=C(C)Nc2nc3ccccc3n2C1c1cccc(OC)c1 (configuration not stated) 3.07%
Cc1ccc(-n2c(C)cc(/C=C(\C#N)C(=O)Nc3ccc(C)c(C)c3)c2C)cc1 1.17%
COc1ccc(NC(=O)[C@H](Cc2ccccc2)N2Cc3ccccc3C2=O)cc1OC -0.809%
COc1cccc(NC(=O)Cn2c(=O)n(Cc3ccc4c(c3)OCO4)c(=O)c3oc4ccccc4c32)c1 4.37%
Cc1ccc(-n2ncc(C(=O)NCCN3CCN(C)CC3)c2C2CCN(C(=O)OC(C)(C)C)CC2)cc1C 6.06%
CCOc1ccc(CNC(=O)Cn2c(=O)c3cccn3c3cccnc32)cc1 -5.9%
COc1ccc2c(c1)c(N1CCCC1=O)c(C(=O)Nc1ccc(OC)c(Cl)c1)n2C -9.43%
CC(=O)c1cccc(NS(=O)(=O)c2c(C(=O)N3CCCCCC3)c(C)n(C)c2C)c1 -3.16%
CCc1ccc(NC(=O)c2cc(S(=O)(=O)NC3CCCCCC3)ccc2F)cc1 -22.4%
Cc1nn(-c2ccccc2)c2c1N(CC(=O)N1CCN(c3ccc(Cl)cc3)CC1)C(=O)CS2 -7.62%
Cc1nn(-c2ccccc2)c2c1N(CCCC(=O)NC(C)c1ccccc1)C(=O)CS2 (configuration not stated) -2.17%
Cc1ccc(S(=O)(=O)c2cn(Cc3ccccc3)c3cc(N4CCOCC4)c(F)cc3c2=O)cc1 7.57%
CCc1ccc(CNC(=O)CCn2nc(C)c3c(C)n(-c4ccccc4)nc3c2=O)cc1 0.139%
COc1cc(NC(=O)c2noc3c2CC(C)CC3)c(OC)cc1Cl (configuration not stated) 1.99%
CC1CCC(NC(=O)c2ccc(CSc3nc4ccncc4n3Cc3ccc(F)cc3)cc2)CC1 (configuration not stated) 0.778%
Cc1nn(CCCC(=O)Nc2ccccc2C(F)(F)F)c(=O)c2nn(-c3ccccc3)c(C)c12 -2.9%
Cc1nn2c(-c3ccccc3)cc(-c3ccccc3)nc2c1-c1ccc(Cl)cc1 -0.0502%
COc1ccc(C(CC(=O)Nc2ncccc2C)N2Cc3ccccc3C2=O)cc1OC (configuration not stated) -4.23%
O=C(Nc1ccccc1)c1cccc(N2CCCS2(=O)=O)c1 -2.61%
Cc1cc(C)n2nc(CNC(=O)c3ccc(Cl)cc3)nc2n1 2.03%
COc1cccc(-c2nc(CS(=O)(=O)CC(=O)N3CCN(c4ccccc4)CC3)c(C)o2)c1 0.0409%
Cc1ccc(Cl)cc1N1CCN(C(=O)c2ccc3c(Cl)c4c(nc3c2)CCCC4)CC1 -0.27%
O=C(Cn1c(=O)ccc2cc(S(=O)(=O)N3CCCC3)ccc21)Nc1ccccc1 -7.57%
CCN1CCN(CCCNC(=O)Cn2c(-c3cccs3)cc3cc(Cl)ccc32)CC1 -8.49%
COc1ccc(-c2nc(CNC(=O)Nc3ccccc3)c(C)o2)c(OC)c1 17.4%
O=c1ccc(-c2ccccc2)nn1Cc1c(F)cccc1Cl -2.41%
COc1ccccc1CNC(=O)CCc1c(C)c2cc3c(C)coc3cc2oc1=O -10.3%
CCn1ccc2c(OCC(=O)Nc3ccc(OC)cc3OC)cccc2c1=O -1.76%
CCn1cc(C(=O)NCCC(C)C)c(=O)c2cc(S(=O)(=O)N(C)C3CCCCC3)ccc21 0.703%
CCC(=O)N1c2ccccc2CC1C(=O)NCCCN1CCN(c2ccc(OC)cc2)CC1 (configuration not stated) 9.03%
CCCCOc1ccc(CNC(=O)c2cnc3sc(N4CCCC4)nn3c2=O)cc1 0.0872%
Cc1c(Cl)cccc1NC(=O)C(=O)NCCc1csc2nc(-c3ccccc3F)nn12 -5.26%
CC1CCCCN1c1cc2c(cc1F)c(=O)c(S(=O)(=O)c1ccccc1)cn2Cc1ccccc1 (configuration not stated) -3.42%
O=C(Cn1c(-c2cccs2)cc2cc(F)ccc21)NCCc1ccc(Cl)cc1 -4.85%
O=S(=O)(Nc1ccc(O)c(Sc2nc3ccccc3s2)c1)c1cc(Cl)ccc1Cl -11.8%
Cc1nc2c3cccnc3nn2c(C)c1CCC(=O)NCc1ccccc1 -16.4%
Cc1ccc(C)c(NC(=O)c2cc(S(=O)(=O)NCc3ccccc3)ccc2F)c1 -7.67%
CCN(CC)S(=O)(=O)c1ccc2c(c1)nc(CN(C)C(=O)Nc1ccc(C)c(Cl)c1)n2C 20.7%
COc1ccc(Nc2ncc(C(=O)Nc3cccc(Cl)c3)c3ccccc23)cc1 -0.526%
CCc1ccc(NC(=O)C(=O)NCC(c2ccc3c(c2)OCO3)N2CCN(C)CC2)cc1 (configuration not stated) -10.4%
CC(C)CCNC(=O)c1cnc2sc(N3CCCCCC3)nn2c1=O -3.24%
